Test results reported in the supplement of paper PMC3334620.
Over roughly 33,000 sequences, “E-score (-0.5 to 0.5)” has its median near -0.01; the highest 2% begin near 0.26. Some of the results follow.

target: Ste12 (UniProt P13574); experiment: PBM E-score (8-mer binding enrichment) (E-score (-0.5 to 0.5)); higher = stronger / more preferred TF binding; most listed sequences are background and not binding sites; details: protein concentration: 200 nM; construct: GST-DNA-binding domain
Protocol: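 Universal 'all 10-mer' protein binding microarrays (Agilent AMADID 015681) probed with GST-tagged S. cerevisiae TFs (full-length or DBD) made by in vitro transcription/translation (PURExpress), about 100-200 nM. Bound TF was detected with fluorescent anti-GST. Each ungapped 8-mer (which stands for itself and its reverse complement) is scored by the PBM enrichment score (E-score), a modified Wilcoxon-Mann-Whitney statistic from -0.5 to +0.5, computed with the Universal PBM Analysis Suite. Scale: above 0.35 generally sequence-specific binding.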

Sequence | PBM E-score
CTCCCAGA | -0.165
GCCATGGC | -0.119
ACAGAAGC | -0.0242
AGTTCCTA | 0.036
CGTCACAG | 0.241
ACGCACAC | 0.0111
AGTGTGAT | -0.0705
ATAAGCGA | 0.124
GAGAAGTA | 0.0345
ATTGCACA | -0.0945
CGCACGAC | -0.18
CGGGGAGC | 0.124
TATAACAA | 0.215
ATTTCGTC | 0.0673
CCCGAGGG | -0.055
GTGAAGTA | 0.0422
ACCCACCT | 0.0687
AGTCGAAT | -0.11
AGGTGGGC | -0.143
AACCGTTC | 0.0503
CCTGTCAC | -0.0246
CCGACAAC | 0.0301
AATGAGAA | 0.0724
CCTGTACC | -0.139
AGTACCTC | -0.116

Sequence | PBM E-score
GTTTAACA | 0.0355
GTGCCTTA | -0.039
CCTCCACA | -0.115
CAAGTTGC | -0.0129
GAACAGGA | -0.14
ATGTCTAA | 0.0254
AGTGATAC | 0.0953
GTCACGAC | -0.0172
ATAACCAC | 0.172
CCCAACAG | -0.151
AAATCAGT | 0.139
ATTGGAGC | -0.0227
CGCCGTTA | -0.0556
GGTTCCCA | -0.219
GGAATGAC | -0.0387
AAGTCACA | 0.0917
CAAACGCC | 0.0326
CAGACGAC | -0.258
ACGTTAGA | 0.103
AAGAATCT | -0.0844
GACACCCA | -0.0387
GGGCCAGA | -0.0832
ACGTTCAT | -0.158
ATCCGCCA | -0.12
GATATCGA | 0.0654

Sequence | PBM E-score
GAACCAAC | 0.0674
ACTCTTAG | -0.0071
GATCTCCA | -0.0207
GATACGAC | -0.0468
GGCTTCCC | -0.197
AGGTCGAT | 0.132
GGTTCCAA | 0.225
ACAACTAG | -0.118
AACAGCGC | -0.0225
TCTCCTAA | -0.00062
AAGCCTCA | -0.238
TCGAAAAA | 0.238
AGGCATGA | -0.0765
ACTCCTCC | -0.0302
AATGCTAT | -0.0169
GGGCTAGA | -0.177
AAACCGTC | 0.0495
TACTTCGA | 0.21
ACGTAAAC | -0.0335
GGGCCTCA | -0.0796
GGAGCTTA | -0.219
ACTTTATC | 0.102
GAACTCCC | 0.0278
CGATTTGA | 0.129
GACCCCGA | -0.0406

Sequence | PBM E-score
GGGTGGAC | -0.226
AGCTGCAA | -0.0393
ACCGACTA | -0.175
GTCGGCAA | -0.133
CCTGTTGC | 0.111
GGGTCTCA | -0.0397
CAGCGCCC | -0.0741
CTAATTGC | 0.13
GGGATAAC | -0.0162
AATAGGCT | 0.0616
AAGACCCG | -0.0735
CAAATGCC | -0.227
CCGAGCGA | 0.0317
GCCCGACA | 0.205
CGCGTCCG | 0.0389
ACGATGAC | -0.173
AACCGATG | 0.113
ATCTTCCC | 0.131
CCAAGATC | -0.164
GTCAATCA | 0.00113
AAATGTCT | 0.0539
AATGAGCC | -0.076
ACCGGGCA | -0.18
ATGCCTCG | 0.00724
AAAGCTGC | 0.0388

Sequence | PBM E-score
AGAGAGGG | -0.255
CATGCAGC | -0.122
GGAGTGCC | -0.269
CATAAGAG | -0.0402
AGAAGCTC | -0.223
AACGGTGG | -0.128
TCGAGGAA | 0.0493
CCCCGAGA | 0.066
GCCTACAA | -0.0578
AACACTTG | -0.0983
GTTCTAAA | 0.223
CGGAGTTA | -0.0439
CGCTCCAA | -0.189
ACGTTTCC | -0.0394
CGTCCGCA | -0.192
GATGATTA | 0.0318
CGCTCGTC | -0.202
ACTGCACG | 0.0119
CCTAAGTA | -0.00863
AACGGCCT | -0.0876
AGTTAGAA | 0.0897
CCGGTGTA | 0.0161
AGTCTATC | -0.15
CCCTTAAG | -0.091
GGTGAACC | -0.00551

Sequence | PBM E-score
CTCGTGGC | -0.0643
CCCCGATA | 0.0333
AATAACGC | 0.0349
TATATTGA | 0.245
ACAACATC | -0.0874
ATCCGATC | 0.162
GCTTATCA | 0.0662
CTAAAAGA | 0.0876
AGCACTAT | -0.29
ATCGAATG | 0.0932
CTATGTAA | 0.0851
CGATCCAA | -0.0517
AGTGGCTG | 0.0252
AGGCCTGA | 0.0596
CACACTTA | -0.0107
GAGGAGTA | -0.0707
GCAACGTA | 0.0118
CGACCAAA | 0.167
CGTATGGA | 0.0821
AACTAGTT | 0.0497
GTTCTCCA | -0.0071
AAATATAC | 0.225
GGATCATA | 0.00836
TAGGTGGA | -0.0849
CCATATAG | -0.111

Sequence | PBM E-score
GCTGAGTA | -0.0751
ATATACCA | -0.101
ATTAATGG | 0.219
ATACCGAC | -0.0269
CCAACTGG | -0.0346
ATTAACTA | 0.157
ACTCGTAC | -0.187
GGCTAACA | -0.129
GGGCACCC | -0.114
ACCAGTAT | 0.0354
AAGAAACA | 0.285
TACCACTA | -0.0201
CCGATTAC | -0.0622
AATTGAGA | 0.164
GAGGCCAA | -0.0479
CAGGACAG | -0.157
ATCAAATC | 0.235
AGAATACA | 0.0801
GATGGCGA | -0.0467
CGGGAGGA | -0.00159
AGGGCAGG | -0.0843
ACTGGGTA | -0.0106
